Each structure is given as a SMILES string. The full ranking holds about 110,000 compounds; the median of “z-score” is about -0.1, and the highest 2% start at about 2. The list shows a part of the results. Activity calls are given as the source filed them.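 How the source made its calls: active means z-score in the third read window above 3 or below -3; inactive means the rest.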

In this assay the target is Metabotropic glutamate receptor 8 (Rattus norvegicus) (UniProt P70579). The assay is described as follows: rat mGluR8 modulators via GIRK flux, primary screen, cell-based, thallium flux, HTS (AID 488969). Conditions: HEK293 rat mGluR8, GIRK (G protein-gated inwardly rectifying potassium channel) thallium flux, FluoZin2; at 10 µM; stronger effect = higher value; submaximal glutamate (EC20) added with thallium.
UniProt P70579, sequence (P70579 whole entry, looked up): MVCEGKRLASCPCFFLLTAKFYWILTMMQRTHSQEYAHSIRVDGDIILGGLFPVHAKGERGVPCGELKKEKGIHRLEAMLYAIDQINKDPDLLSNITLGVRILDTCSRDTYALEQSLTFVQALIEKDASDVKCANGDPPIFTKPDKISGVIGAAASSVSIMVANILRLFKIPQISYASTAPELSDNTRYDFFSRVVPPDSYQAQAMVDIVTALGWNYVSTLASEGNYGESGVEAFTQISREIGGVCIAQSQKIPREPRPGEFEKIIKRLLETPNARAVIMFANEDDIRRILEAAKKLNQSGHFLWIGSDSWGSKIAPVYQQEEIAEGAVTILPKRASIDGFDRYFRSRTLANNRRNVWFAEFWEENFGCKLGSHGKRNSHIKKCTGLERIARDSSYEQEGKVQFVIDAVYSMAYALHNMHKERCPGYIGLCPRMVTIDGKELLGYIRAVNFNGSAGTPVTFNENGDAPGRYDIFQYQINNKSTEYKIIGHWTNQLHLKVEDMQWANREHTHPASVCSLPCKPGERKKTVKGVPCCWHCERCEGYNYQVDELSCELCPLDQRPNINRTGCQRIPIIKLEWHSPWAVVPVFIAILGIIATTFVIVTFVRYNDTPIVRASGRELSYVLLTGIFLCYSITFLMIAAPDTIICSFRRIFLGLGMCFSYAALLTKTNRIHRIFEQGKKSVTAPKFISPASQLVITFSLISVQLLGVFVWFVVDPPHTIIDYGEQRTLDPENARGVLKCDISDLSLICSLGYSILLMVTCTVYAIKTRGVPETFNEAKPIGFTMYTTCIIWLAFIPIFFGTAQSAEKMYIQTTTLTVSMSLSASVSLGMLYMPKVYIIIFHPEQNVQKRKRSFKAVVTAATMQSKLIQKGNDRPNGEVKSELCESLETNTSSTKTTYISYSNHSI
With `O=C(O)c1ccccc1Nc1ccc([N+](=O)[O-])cc1`, the z-score is -0.445.

The compound `O=C(CCCCCCN1C(=O)c2ccccc2C1=O)Nc1nccs1` yielded a z-score of -0.133.

Consider `N#C/C(=N\Nc1ccccc1)C(=N)N1CCCCC1`, for which the z-score was -0.0975.

As to `CCC(C(=O)Nc1cccc(C(F)(F)F)c1)c1ccccc1` (centres undefined), the z-score was -0.483.

In turn, `O=C(NC(=S)NCC1CCCO1)c1ccccc1` (centres undefined) came in with a z-score of 0.575.

`COc1ccc(/C(O)=C/c2nc3ccccc3n(-c3ccccc3)c2=O)cc1` gave a z-score of -0.642.

The compound `O=C(NCc1cccnc1)c1cccc2c1C(=O)N(Cc1cccnc1)C2` returned a z-score of -0.164.

Consider `Cc1ccc(S(=O)(=O)C2C(=O)NC3(C)CC2c2ccccc2O3)cc1` (centres undefined), for which the z-score is -0.624.

In turn, `Cc1nn(Cc2ccc(C(=O)Nc3ccc(Br)c4cccnc34)o2)c(C)c1Br` came in with a z-score of 1.16.

On to `Cc1ccc2nc(/C(C#N)=C\c3ccc([N+](=O)[O-])o3)[nH]c2c1`, for which the z-score was determined as 0.358.

As to `c1ccc2c(c1)CNC1(CCCCC1)C2`, the z-score is 0.24.

In the case of `CN(C)c1ccc(/C=N/Nc2ccc(-n3ccnc3)nn2)cc1`, the z-score is -0.181.

For `CCC(C)NC(=O)c1cc(-c2ccc(OC)cc2)on1` (centres undefined), the z-score is -0.194.

The compound `CCOC(=O)c1c(C)c(C(=O)Nc2ccc(N(C)C)cc2)c(C)n1CC` had a z-score of -0.524.

For `O=C(N/N=C/c1ccc(OC(=O)c2ccc3c(c2)OCO3)cc1)c1cncc(Br)c1`, the z-score is -0.22.

Compound `CC1(C)CC(=O)C2=C(C1)N=C1SCCC(=O)N1C2c1ccc(C(F)(F)F)cc1` (centres undefined) showed a z-score of 0.534.

Compound `CC(=O)Nc1ccc(Nc2ccc(N3C(=O)CCCC3=O)cc2[N+](=O)[O-])cc1` yielded a z-score of 0.223.

Compound `CCCCn1nnc(NC(=O)c2ccc(-c3cccc(Cl)c3)o2)n1` came in with a z-score of -0.581.

Compound `Cc1ccc2nc(Cl)c(CN(C(=O)c3cnccn3)C3CCCCC3)cc2c1` displayed a z-score of -0.772.

For `COc1ccc(Nc2nc3ccc(C)cc3cc2C#N)c(OC)c1`, the z-score is -0.143.

With `COc1ccc(C(=O)NCCSc2ccccc2)cc1`, the z-score is -0.0064.

Consider `O=C(NN1C(=O)c2ccccc2NC1c1ccccn1)c1ccc(Br)cc1` (centres undefined), for which the z-score was -0.669.

As to `CC(C)(C)C(=O)Nc1ccc(C(=O)N/N=C/c2ccccc2OC(=O)c2ccc(Cl)cc2)cc1`, the z-score was -0.655.

Compound `CC(=O)OC1COC(N2CCc3cc([N+](=O)[O-])ccc32)C(OC(C)=O)C1OC(C)=O` (centres undefined) returned a z-score of 0.0841.

As for `CCCS(=O)(=O)N1CCN(C(=O)c2cc(OC)cc(OC)c2)CC1`, the z-score is 0.273.

For `Cc1ccc(/C=N\NC(=O)c2csnn2)cc1`, the z-score came to 0.237.

The compound `Cc1ccc(C)c2[nH]c(=O)c(CN(Cc3cccs3)C(=S)NCc3ccco3)cc12` returned a z-score of -0.0745.

Take `C=CCc1c(C)nc(SCC(N)=O)[nH]c1=O`: the z-score turned out to be 0.00508.

For the compound `CCCCNC(=O)CC1N=C2c3ccccc3N=C(SCC(=O)Nc3ccccc3C)N2C1=O` (centres undefined), the z-score is -0.545.

In turn, `COc1ccc2c(c1)C(=O)N(c1ccccc1OC)C(=O)C2(C)C` yielded a z-score of 0.943.

As to `COc1ccc(CCn2nnnc2C(c2ccc(C)cc2)N2CCN(C)CC2)cc1OC` (centres undefined), the z-score worked out at 0.0408.

The compound `C#CCOc1ccc2c(C)cc(=O)oc2c1` had a z-score of -0.0974.

With `Cc1nnc(SCC(=O)N2CCN(c3ccccc3)CC2)n1-c1ccccc1`, the z-score is -0.268.

As for `O=C(O)CCC(=O)c1ccc2c(c1)OCCO2`, the z-score is -0.256.

For `O=C(NCCc1ccccc1)C1CCC(Cn2c(=O)c3ccccc3n(Cc3cccc(F)c3)c2=O)CC1` (centres undefined), the z-score is -0.021.

As for `O=C(CSc1ccc(Cl)cc1)N1CCN(c2ncc(C(F)(F)F)cc2Cl)CC1`, the z-score is -0.0561.

`CC(=O)Nc1cccc(NC(=O)Nc2ccc(C(C)=O)cc2)c1` displayed a z-score of 0.0984.

As for `NNC(=O)c1ccc([N+](=O)[O-])c(CS(=O)(=O)c2ccc(Cl)cc2)c1`, the z-score came out at 0.293.

Compound `O=P(O)(CP(=O)(c1ccccc1)c1ccccc1)c1ccccc1O` showed a z-score of -0.233.

Turning to `CCOC(=O)N1CCN(C(=O)c2cccn3c(=O)c4cc(Cl)ccc4nc23)CC1`, the z-score was -0.274.

Take `Cc1ccccc1N/N=C/c1ccc(N2CCOCC2)cc1`: the z-score was -0.279.

`c1ccc(-c2cnn3nnnc3n2)cc1` registered a z-score of 0.318.

Turning to `C/C(=N\NC(=S)NC(C)C)c1ccc(-n2ccnc2)cc1`, the z-score was -0.306.

As to `Cc1ccc(-c2nn(CC(=O)N(C)C)c(=O)c3ccccc23)cc1S(=O)(=O)N(C)C`, the z-score was -0.0742.

`Cc1nn(Cc2cccc(F)c2)c(C)c1NC(=O)c1c([N+](=O)[O-])c(C)nn1C` had a z-score of 0.203.

In the case of `CCOC(=O)c1c(C)nc2c(c1-c1cc(OC)ccc1OC)C(=O)c1ccccc1-2`, the z-score was determined as 0.434.

Compound `Cc1ccc(SCCNC(=O)c2ccc(C)c([N+](=O)[O-])c2)cc1` came in with a z-score of -0.0609.

`O=c1oc2ccccc2cc1-c1nc(-c2cccs2)cs1` had a z-score of -0.0538.

With `COc1cc(CNCCN2CCOCC2)ccc1OCc1c(Cl)cccc1Cl`, the z-score turned out to be 0.114.

With `Cc1ccc2c(c1)OC(=O)CC2c1ccccc1` (centres undefined), the z-score is -2.21.

`CCOc1ccc(Br)cc1CSC(=N)N` registered a z-score of 1.29.

Compound `CCCCCc1nc(-c2nonc2N)no1` registered a z-score of -0.0762.

In the case of `O=C(Nc1ccc2c(c1)OCCO2)C1CCN(C(=O)c2ccc(Br)cc2)CC1`, the z-score was -0.876.

Regarding `CCOC(=O)c1cnc2c(cnn2C)c1NCCC(O)C(F)(F)F` (centres undefined), the z-score is -0.0585.

Turning to `CCC(=O)Nc1ccc(-c2csc(NNC(C)=O)n2)cc1`, the z-score is -0.182.

Compound `O=C(COc1ccc(S(=O)(=O)NCc2ccccc2)cc1)NCC1CCCO1` (centres undefined) gave a z-score of -0.16.

`COc1cc(S(=O)(=O)N2CCC(c3nc4ccccc4s3)CC2)ccc1S(=O)(=O)NC1CCCC1`: the z-score worked out at 0.23.

`C=CCN(c1ccccc1)S(=O)(=O)c1cccc(C(=O)Nc2nnc(SCC)s2)c1` yielded a z-score of -1.12.

In the case of `Cc1nn(Cc2ccccc2)c2c1C(c1cccnc1)C(C#N)=C(N)O2` (centres undefined), the z-score is -0.257.

In turn, `O=C1CCCN1CN(C(=O)c1ccccc1)c1ccc(F)cc1` came in with a z-score of -0.0318.

`Cc1cc2nn(-c3cccc4ccccc34)nc2cc1NC(=O)c1cccs1`: the z-score amounted to 0.924.

In turn, `CO/N=C/NC(=O)c1c(OC)ccnc1Oc1ccccc1` came in with a z-score of 0.157.

The compound `O=C(CSc1nnc(-c2ccco2)o1)NC1CCCCC1` returned a z-score of -0.545.

With `Cn1c(=O)cc(SCC(=O)NCC2CCCO2)c2ccc(Cl)cc21` (centres undefined), the z-score was found to be 0.0952.

`COc1cccc(-n2nnc3c(=O)n(CC(=O)N4CCC(Cc5ccccc5)CC4)cnc32)c1`: the z-score was -0.381.

As to `CCn1c(COc2ccc(C)cc2)nnc1SCC(=O)NNC(=O)c1ccc(OC)cc1`, the z-score was 0.144.

As to `Cc1nc(-c2cccnc2)sc1C(=O)Nc1cccc(C(F)(F)F)c1`, the z-score is -0.458.

`Cc1cc(C)c2c(N)c(C(=O)Nc3ncc(C)s3)sc2n1` returned a z-score of 0.416.

For the compound `CC(C)(C)c1ccc(-c2csc(NC(=O)CN3C(=O)NC4(CCCCC4)C3=O)n2)cc1`, the z-score came to 0.237.

The compound `Cc1ccc(CN2CCN(/N=C/c3ccc(C(=O)O)cc3)CC2)cc1` showed a z-score of 0.363.

`CCCCN(C(=O)Cn1nnc2ccccc21)C(C(=O)NCCOC)c1ccc(OC)cc1` (centres undefined) displayed a z-score of 0.128.

`C=CCn1c(=O)n(CCOC)c(=O)c2sc3ccccc3c21` displayed a z-score of 0.137.

On to `COc1ccc(NC(=O)CCC(=O)Nc2nnc(C(F)(F)F)s2)c(OC)c1`, for which the z-score was determined as 0.256.

In turn, `CC1(C)Oc2cc(N)c([N+](=O)[O-])cc2O1` yielded a z-score of -0.195.

Consider `CCOC(=O)c1cc(C)sc1NC(=O)c1ccc(Cl)s1`, for which the z-score was 0.0286.

Turning to `Cc1ccnc(NS(=O)(=O)c2ccc(NC(=O)c3c(-c4ccccc4Cl)noc3C)cc2)n1`, the z-score was -0.0236.

`CCOC(=O)C(NS(=O)(=O)c1ccccc1)(C(F)(F)F)P(=O)(OCC(C)C)OCC(C)C` (centres undefined) displayed a z-score of 0.767.

Regarding `O=C(NC1CCCCC1)C(c1ccc(O)cc1)N(CC1CCCO1)C(=O)C1COc2ccccc2O1` (centres undefined), the z-score worked out at 0.338.

`CSc1nc(-c2ccco2)nn1S(C)(=O)=O` yielded a z-score of -0.121.

With `COc1ccc(-n2c(=O)[nH]cc(C(=O)Nc3ccc(NC(C)=O)cc3)c2=O)cc1`, the z-score is active: 9.34.

Compound `Cc1c(Cl)c(-c2n[nH]c(=S)n2-c2ccc(F)cc2)nn1C` had a z-score of -0.0208.

Compound `CCOC(=O)Nc1c(O)ccc2oc(C)c(-c3ccccc3)c12` returned a z-score of -0.541.

In turn, `CC(NC(=S)N1CCOCC1)c1ccccc1` (centres undefined) gave a z-score of -0.159.

`COCCNC(=O)C(c1cccs1)N(Cc1cccs1)C(=O)Cn1nnc2ccccc21` (centres undefined) gave a z-score of -0.531.

Consider `CCn1c(=O)cc(O)c2c(=O)n(C)c(=O)n(C)c21`, for which the z-score stood at 0.212.

`C=C(C)c1cccc(C(C)(C)NC(=O)N2CC(C)OC(C)C2)c1` (centres undefined) came in with a z-score of -0.0325.

`O=C(CC1C(=O)N(c2ccccc2)C(=S)N1c1ccccc1)c1ccc(Br)cc1` (centres undefined) displayed a z-score of -0.0821.

Consider `O=C(Nc1ccc(SC(F)F)cc1)C12CCC(CC1)C2`, for which the z-score was active: 3.38.

In turn, `CCn1cc(C(=O)NCCN(C)CCc2ccccc2)c(=O)c2cc(S(=O)(=O)N(C)C)ccc21` had a z-score of 0.267.

Take `COc1cc(/C=N/n2cnnc2)ccc1OCCSc1ccc(C)cc1`: the z-score was -0.194.

The compound `Cc1cccc(C)c1NC(=O)COc1cccc(/C=N/NC(=O)C(=O)NCc2ccccc2)c1` registered a z-score of -0.327.

With `COc1ccc(N2C(=O)CC(N3CCN(S(=O)(=O)c4c(F)cccc4F)CC3)C2=O)cc1OC` (centres undefined), the z-score is 0.106.

`CSc1ccc(CCNC(=O)C2CCN(c3nnc(-n4cccc4)s3)CC2)cc1` yielded a z-score of -0.065.

In turn, `COc1ccc(/C(C)=C2/SC(=S)N(CCC(=O)O)C2=O)cc1` came in with a z-score of -0.343.

`CC1(C)CC(=O)C(C2=NC(C)(C)Cc3ccccc32)=C(O)C1`: the z-score amounted to 0.648.

Regarding `C(=N\n1cnnc1)/c1ccc(OCc2cccc3ccccc23)cc1`, the z-score was -0.133.

`CN1Cc2cc(C(=O)c3ccccc3O)cnc2NC1=O` registered a z-score of -0.205.

For the compound `CCN1CCN(CCCNC(=O)c2csc3c2CCCCC3)CC1`, the z-score was -0.63.

As to `CCOc1ccc(N2C(=O)CN=C2Nc2ccccc2F)cc1`, the z-score is -0.971.

For `O=C(CCC(=O)NC1CCCCCCC1)Nc1nnc(C(F)(F)F)s1`, the z-score is -0.00846.

In the case of `Clc1cccc(-c2nc(NCc3cccnc3)c3ccccc3n2)c1`, the z-score is -0.233.

On to `Cc1cc(/C=C(\C#N)C(=O)NCc2ccco2)c(C)n1C1CCCC1`, for which the z-score was -0.408.

`O=C(c1c[nH]c(C(=O)C(Cl)(Cl)Cl)c1)c1ccccc1Cl` came in with a z-score of -0.0667.

Regarding `NS(=O)(=O)c1cccc(NC(=O)CCSc2ccccc2Cl)c1`, the z-score was -0.225.

Regarding `C/C=C/Cn1c(SCCCc2ccccc2)nc2c1c(=O)[nH]c(=O)n2C`, the z-score was -0.411.

In the case of `Cn1c(SCC(=O)OC2CCCCC2)nnc1-c1ccco1`, the z-score was -0.0323.

Regarding `Cc1ccc(NC2=Nc3ccccc3CS2)cc1`, the z-score was 0.172.

In the case of `N/C(=N\OC(=O)CCC1CCCC1)c1cccnc1`, the z-score is -0.0306.

Compound `FC(F)(F)c1cccc(Cn2nnnc2-c2cc(Cl)cc(Cl)c2)c1` yielded a z-score of -0.134.

Source of the values: PubChem BioAssay AID488969 (Vanderbilt High Throughput Screening Facility, 2010).
